# Reference: the supplement of paper PMC11417369
# The other results are listed elsewhere or left out.
# Tested on: PF3D7_0420300 AP2 domain 1 (GST-tagged)
# Assay: gcPBM binding intensity (ln(normalized median fluorescence intensity)); higher = stronger DNA binding
# Procedure, shortened: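 GST-fused DNA-binding domains of P. falciparum, expressed in E. coli, were applied at about 25 μg on average for 1 h to an Agilent 4 × 180k array of primer-extended double-stranded 36-bp intergenic genomic probes and negative controls. Binding intensity is the highest Masliner-normalised natural-log median intensity across replicate spots of either probe orientation, measured with Alexa488 anti-GST antibody and a 488 nm scan.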
row,Sequence,gcPBM binding intensity (ln)
1,TATATAATATTCTACACACCAACAACAAACATATAT [CACACA_site567],9.7
2,ATATTCTGATTTTAGATGCACTTCGTTAACAAAATA [GTGCAC_site9958],9.13
3,ATATATATATTTATATGTACATAATATAAAATTTCT [XGTACX_site3720],9.08
4,TTATATATATGTGTATGTACATATATATATATATAT [XGTACX_site1141],9.23
5,AAAAGAATAATAATTTATGTATATTAATTAAAGAAT [XGTACX_negctrl_site402],9.21
6,TATCATATATTATATGCACACATGTTTTTCAAGAAT [CACACA_site1892],9.31
7,TATTACACATATTATGTGCACATATATAATCAATAT,9.34
8,ATTTTATTTTTGTGCACACTGATAAATTGAAAAGAG [CACACA_site2948],9.18
9,AAAAAAAAAAATTAAAGTACTAATTAAAATTATATG [XGTACX_site5289],9
10,TATATATATATAATATGTACATATATTAAGCATTTT [XGTACX_site4470],9.31
11,ATAAATTTTTTATGAACACACAAATACCCACGCTCA [CACACA_site2659],9.49
12,TTTTAATTAAATAAATGTACTCATTCTATTATTTAT [XGTACX_site3032],9.11
13,ATACCTGTTGTGTTACGTACATAATTTTAATGTTTG [XGTACX_site8181],9.62
14,AAATTCAATTTGCGCTGTACATGAAGATATAAATTT [XGTACX_site4844],9.18
15,AAAAAAAACACGCGCACACACACACCCACAGACACA [CACACA_site5253],9.92
16,TATTTTTTAAAAAATTATAAATAAAATTATATTACG [CACACA_negctrl_site324],8.78
17,TATATATATAAATACACACACACACCCCAAAGCGTA [CACACA_site4211],10.1
18,TATAATATATTCACTCGTACATATTTAATAATATCT [XGTACX_site6209],9.34
19,ACAGTATATTAAAAAATACACACGTATTATATCTAC [CACACA_site2640],9.4
20,CCAAAAAATATATGTAGTACTACATTATTAAATATG [XGTACX_site5128],9.24
21,ATGTATAAACAAAAGGGTACATATATATATATATAT [XGTACX_site2087],9.24
22,AGAAAAATTACAAAATGTACATAATGTGTTATTAAT [XGTACX_site7877],9.35

row,Sequence,gcPBM binding intensity (ln)
1,AATAAAAAACATGAAAGTACTTTAAAAAAGGTAATA [XGTACX_site1897],9.53
2,AAGTACATACATAAAACACACACATATATATATATA [CACACA_site8541],9.59
3,AATATATAAATCAATAGTACATATATATATATATAT [XGTACX_site3898],9.02
4,ATTAAGTACTAAAAAGTGCAGTTCGGTACTGTGCTT [GTGCAC_site9755],9.25
5,ATTAAATATGAGGGAACACACACATGATATATAAAT [CACACA_site8755],9.97
6,TTATATAAAGAATGTACACACAGAAATGCACCCACA [CACACA_site2282],9.73
7,TTATATTTATAAAGGTGTACCTTAAAATGATTTTAC [XGTACX_site3774],8.89
8,AAAATTAAATAAAAATGTACAGAAATATTATATGAA [XGTACX_site5695],9.37
9,ATATATTATATTAATTGTACATAAAAAAGAGAAAAA [XGTACX_site3366],9.25
10,TACATACACGGACACACACACATATATATATATATA [CACACA_site5883],9.95
11,TAATTTTATATTAAAAGTACATAATAAAAACTATAA [XGTACX_site8779],9.06
12,AAGAAATATATATATATATATATATATATATATGTA [TGCATGCA_negctrl_site442],9.08
13,TTTAAAAACAAATATTGTACAAATTAAAATATATCA [XGTACX_site7220],9.07
14,AGAGCATAATAAAACACACACATACATACAGATATA [CACACA_site4671],9.87
15,CACTAATATATATACAGTACATAATAAAGTATATAA [XGTACX_site6875],9.32
16,TGATGATATAAAAACACACACATATAATATAATACT [CACACA_site1208],10
17,CTGTTTTACTTTAGTAGTACAATAAAAATATAAAAA [XGTACX_site2934],9.02
18,TATTACCCATATTATACACACATATATTATATATAT [CACACA_site1567],9.54
19,AAAAAAAAAAAACATACACACAAATATATACATACA [CACACA_site4011],9.89
20,ATAATATCTTCTTTTTTTTTTTTTTTTTTTTTTTTT [CACACA_negctrl_site1005],9.04
21,AAATGATGCATTTGTCATTAAAATTGTGAAATATTA [CACACA_negctrl_site231],8.98
22,AAAAAAAAAAAAAAAAGTACATATATATATAATTAT [XGTACX_site7836],9.37

row,Sequence,gcPBM binding intensity (ln)
1,TATAATAAAATATGTACACACATACAGACATATATA [CACACA_site6693],9.74
2,ATATATATATAATGTGTACACACATATGTATTTATA [CACACA_site8170],9.53
3,TAATTAAGATGATAAAAATTGAAAAAACAATTTTAA [CACACA_negctrl_site658],8.81
4,AGAGTATATAAAGTAACACACAATAAAATAAAATAA [CACACA_site2328],9.82
5,CATATAGTATAAATTTGTACATAAATATATATATAT [XGTACX_site7477],9.36
6,TTTCTAATTTATATCACACACATATATTTATAGTAA [CACACA_site6280],9.45
7,GTTTACTAATATTGCACACGAATATGAAAAAGAGAA [CACACA_site2897],9.45
8,GTGTTAACTATTATGAGTACTTATGTATTAATTCAT [XGTACX_site7767],9.25
9,TTGCTTATTAAATGGGGTACATTATATATATATATA [XGTACX_site2515],9.49
10,TAAATTTGTGGGATTTCACACAGGTTTATTTACATT [CACACA_site5455],9.26
11,ATGTAGGTTAATTATTGTACGTAGGGGGTGTATATT [XGTACX_site3973],10.2
12,TTCAGAGAATAAAAATGTACATATAATATTTTAAAA [XGTACX_site577],8.88
13,CTCTTGTCATTTTGCACACACACATGTATAGGTTAT [CACACA_site3057],10.2
14,TTTACATCAACCTTTTCACACATTCATATACAGATA [CACACA_site6152],9.32
15,TGTGTTTATACGTTTTGTACATATTTTTATTTTGTA [XGTACX_site6425],9.6
16,TCATTAAAGGAAAAATGTACGTATAAATAAATATAT [XGTACX_site2587],9.32
17,TTCAAAAAATAAAATAATAATATATATATAAATATA [XGTACX_negctrl_site84],9.02
18,TTTTTTATATTTAAACTTCACATGGTTTTCATTTAT [XGTACX_negctrl_site291],9.34
19,ATACATATATATATATGTACACATAAACATGAGTGA [XGTACX_site3200],9.29
20,TAATGGAAACCATTTATTTTCTGCAATATATTTTTT [CACACA_negctrl_site1653],9.03
21,AAACAAAATATGGTTCATGAGCAAAAGTTTATTTTG [XGTACX_negctrl_site531],9.27
22,ATTTATTTATACAAAGTGCAATATTTTGTTAAAGTC [GTGCAC_site9618],9.3

row,Sequence,gcPBM binding intensity (ln)
1,AATGTAAAATATAAATGTACATATATATATATATAT [XGTACX_site5071],9.16
2,CTCTTTTCTTATAATACACACAGTAATATATATATA [CACACA_site1520],9.53
3,TATAAAATACATTTATAATATATATATATATTTTTT [TGCATGCA_negctrl_site435],8.99
4,ATATGAAATATATAAATATGTTTATATATATATATA [GTGCAC_negctrl_site94],8.95
5,TACCTAATATGTTATACACACATTATAAGTACATAT [CACACA_site7206],9.6
6,AATATAACTTAGAATTGTACATAAAAAAAAATATAT [XGTACX_site3313],9.35
7,TAAGAAATAAATAGTACACACATAGACACACGCACA [CACACA_site6821],9.92
8,ATACATAAAATTAAAACACACATTTTATTAAATACG [CACACA_site2167],9.48
9,AGTTATATGGTTAATACACACAACAAATGTTTCTTC [CACACA_site6642],9.54
10,GTGTGATGGTACAATATACACACTTAAAAAAAAAAA [CACACA_site8769],9.14
11,AAAAAATATATTTGCACACTCAAAAAAAAAAAAAAA [CACACA_site859],9.08
12,GATCTATACATGGGGACACACATCACTCTATATTTT [CACACA_site3408],9.63
13,ATTTGTTATATATTCTTTTATGTTAATAATTCGAAT [CACACA_negctrl_site378],9.29
14,TATGAATAAAAAAGAAGTACAAATTATATGAACGCA [XGTACX_site3018],9.53
15,AAAAAATACAAACACACACACACACCCATATATATA [CACACA_site3560],10.2
16,CATACTGTTATAAAATGTACGCATATACACACACAT [XGTACX_site7256],9.89
17,TTTTGTTTAATATTCACACATATATATTTTTTATTT [CACACA_site5496],9.41
18,CTTTTTATTTAGGAGGTGCATGTAATACGGAACATA,9.1
19,AGAAACATATGGTAGTGTACTGTAAATTTATTCTTT [XGTACX_site8602],9.33
20,ATTTTGTGTAGTGATGCATGTTATATATATATTTGA [TGCATGCA_site422],9.55
21,TTTTATCAAATATTTATTTTATACATAAATATTTAT [XGTACX_negctrl_site528],9.04
22,ATAACATCAGTATTATGTACATATGTAGGTAAATAA [XGTACX_site7066],9.34
